From PMC4336329 (PLoS ONE, 2015)
The campaign covered roughly 310,000 compounds. About 2,200 (0.71%) showed an effect of 50% or more. Effects have a minus sign here. The list shows a part of the results.

Biological target: human ether-à-go-go-related gene (hERG) potassium channel (human, UniProt Q12809)
Assay: primary screen, population patch clamp on CHO cells stably expressing hERG

human ether-à-go-go-related gene (hERG) potassium channel, sequence (Q12809 whole entry, looked up): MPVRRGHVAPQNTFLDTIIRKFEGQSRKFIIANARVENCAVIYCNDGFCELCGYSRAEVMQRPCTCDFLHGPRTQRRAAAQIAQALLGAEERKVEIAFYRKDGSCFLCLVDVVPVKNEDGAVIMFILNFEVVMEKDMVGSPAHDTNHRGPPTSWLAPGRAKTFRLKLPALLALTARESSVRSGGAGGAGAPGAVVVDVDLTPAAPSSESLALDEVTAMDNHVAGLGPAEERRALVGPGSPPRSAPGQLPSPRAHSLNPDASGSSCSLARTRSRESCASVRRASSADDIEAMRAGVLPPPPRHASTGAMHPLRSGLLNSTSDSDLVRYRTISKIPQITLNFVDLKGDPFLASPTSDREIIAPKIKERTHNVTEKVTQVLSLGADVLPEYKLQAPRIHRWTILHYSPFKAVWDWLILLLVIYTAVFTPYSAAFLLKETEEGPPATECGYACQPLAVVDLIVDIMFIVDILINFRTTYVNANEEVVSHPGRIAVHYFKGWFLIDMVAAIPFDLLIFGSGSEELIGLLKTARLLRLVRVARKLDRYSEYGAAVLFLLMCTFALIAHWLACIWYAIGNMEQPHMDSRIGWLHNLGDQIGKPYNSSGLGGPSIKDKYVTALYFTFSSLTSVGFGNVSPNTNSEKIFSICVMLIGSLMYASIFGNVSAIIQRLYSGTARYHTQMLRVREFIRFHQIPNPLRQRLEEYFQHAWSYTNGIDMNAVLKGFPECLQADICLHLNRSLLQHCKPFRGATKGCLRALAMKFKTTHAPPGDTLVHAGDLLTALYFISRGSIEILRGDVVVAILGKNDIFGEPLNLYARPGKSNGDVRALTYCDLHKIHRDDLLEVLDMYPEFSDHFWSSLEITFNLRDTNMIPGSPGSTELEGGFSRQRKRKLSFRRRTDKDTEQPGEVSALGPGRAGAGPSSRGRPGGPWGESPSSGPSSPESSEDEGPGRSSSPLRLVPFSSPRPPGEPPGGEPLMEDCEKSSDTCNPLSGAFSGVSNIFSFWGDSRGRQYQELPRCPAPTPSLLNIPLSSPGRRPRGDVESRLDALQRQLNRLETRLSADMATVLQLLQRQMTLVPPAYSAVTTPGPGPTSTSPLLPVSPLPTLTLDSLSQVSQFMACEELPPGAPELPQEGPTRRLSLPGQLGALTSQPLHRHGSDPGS

Row | Structure (SMILES) | hERG current change (%, negative = inhibition) at 1uM [%]
1 | CN(CC(=O)Nc1ccc(Cl)cc1)C(=O)c1ccc(S(=O)(=O)Nc2ccccc2)cc1 | 6.47
2 | O=C(O)C1=C(C(=O)N2CCN(C(=O)c3ccco3)CC2)CCCC1 | 3.38
3 | CC(c1ccc(Cl)cc1)n1c(-c2ccc3ccccc3n2)n[nH]c1=S (centres unmarked) | 10
4 | Cc1onc(-c2c(F)cccc2Cl)c1C(=O)N1CCSCC1 | 14.2
5 | Cc1nn(C)cc1CN(C)C(=O)c1nn2c(c1Br)NC(c1cccs1)CC2C(F)(F)F (centres unmarked) | 3.03
6 | COc1ccccc1NC(=O)NC1CCS(=O)(=O)C1 (centres unmarked) | 16.5
7 | COc1ccc(CNC(=O)CN2CCN(C(c3ccccc3)c3ccccc3)CC2)cc1 | 15.7
8 | COc1ccc(C(=O)NCC(=O)OCC(=O)c2ccc3c(c2)OCCO3)cc1 | 4.48
9 | O=C(COC(=O)c1cc(=O)[nH]c2ccccc12)NC(=O)NC1CCCCC1 | 4.42
10 | CCN(CC)C(=O)CCc1nnc(Cc2cccc(C(F)(F)F)c2)o1 | 11.4
11 | Cc1ccn2c(CNCC3OCCc4ccccc43)c(C(=O)N3CCCCCC3)nc2c1 (centres unmarked) | -18.2
12 | O=C(Cn1nc(Cc2cccnc2)c2ccccc2c1=O)N1CCN(c2ccccn2)CC1 | -1.89
13 | O=C(O)c1ccc(NC(=S)N2CCCCC2)cc1 | 10.2
14 | O=C(CNC(=O)c1ccco1)NCC(=O)OCc1ccc(Cl)cc1 | 6.67
15 | COc1ccc2c(=O)c3c(=O)n(-c4ccccc4)c(-c4ccc(C)cc4)nc3oc2c1 | 14.3
16 | CN(CC(=O)Nc1ccc(F)c(F)c1F)C(=O)CCCc1nc2ccccc2c(=O)[nH]1 | 2.9
17 | O.O=C1NC2(O)C(=O)c3ccccc3C2(O)N1 (centres unmarked) | 13.5
18 | Cn1cccc1CC(=O)NNC(=S)Nc1ccc(F)cc1 | 10.2
19 | O=C1c2ccccc2NC(c2ccccn2)N1c1ccccc1F (centres unmarked) | 10.7
20 | Cc1cccc(C)c1N=Cc1c(C(F)(F)F)[nH][nH]c1=O | 4.12
21 | Clc1ccc(N2CC2c2ccncc2)cc1 (centres unmarked) | 15
22 | COc1cc(/C=C(/C#N)C(=O)NC(C)c2ccccc2)cc(OC)c1O (centres unmarked) | 20.1

Row | Structure (SMILES) | hERG current change (%, negative = inhibition) at 1uM [%]
23 | COc1[nH]c2ccc(F)cc2c1C(=O)OCC1CCN(CCNS(C)(=O)=O)CC1.NS(=O)(=O)O | 9.88
24 | O=C1C(=O)N(c2nccs2)C(c2ccccc2F)/C1=C(\O)c1ccc2c(c1)OCCO2 (centres unmarked) | 14
25 | Cc1ccc(COC(=O)c2ccc3ccccc3n2)cc1 | 9.37
26 | CCCCn1c(N)c(NCCC)c(=O)[nH]c1=O | 10.3
27 | CCN(CC)c1ccc(C(=O)NNC(=O)CN2C(=O)NC(C)(c3ccccc3)C2=O)cc1 (centres unmarked) | 9.28
28 | CC(=O)O.CN=C(N)NCCC[C@H](N)C(=O)O | 19.7
29 | COc1cc(NC(=O)Nc2c(C)n(C)n(-c3ccccc3)c2=O)cc(OC)c1OC | 8.67
30 | CCO[C@H]1OC(C(N)=O)=C[C@@H](c2csc3ccccc23)[C@@H]1CCCO | 8.25
31 | COc1ccc(/C(C)=N/OCC(=O)N=Nc2c(O)[nH]c3ccccc23)cc1 | -0.898
32 | Cc1[nH]c(=O)c(S(=O)(=O)c2ccccc2)c(C)c1Cl | 16.6
33 | Brc1ccc(CSc2nnc(-c3ccco3)o2)cc1 | 6.11
34 | N#C/C(=C\c1ccc(F)cc1)c1nc(-c2ccco2)cs1 | 11.3
35 | Cc1ccc(Nc2nc(-c3sc(NC(=O)c4cccc(Cl)c4)nc3C)cs2)cc1 | -0.49
36 | COc1ccc([N+](=O)[O-])cc1NCC(=O)Nc1cc(S(=O)(=O)N2CCCCC2)ccc1C | 14.2
37 | CC(=O)c1cccc(NC(=O)/C(=C\c2ccco2)NC(=O)c2ccco2)c1 | -50.7
38 | COc1ccccc1CNC(=O)/C=C/c1ccc(S(=O)(=O)NCc2ccco2)cc1 | 10.7
39 | Cc1ccccc1-n1c(=O)cc(NCc2ccc3c(c2)OCO3)[nH]c1=O | -10.7
40 | CN(Cc1ccccc1)c1nc(CN2CCOCC2)nc2scc(-c3ccccc3)c12 | 5.77
41 | CSc1nc(C)c(C(=O)C[n+]2ccc(C)cc2)cc1C#N.[Br-] | -2.81
42 | O=C(O)c1cccc(Cn2c(Cl)c(/C=N/NC(=O)c3ccco3)sc2=O)c1 | 26.2
43 | O=C(/C=C/c1ccccc1)c1ccc2c(c1)OCO2 | 13.2
44 | c1ccc(COCCC2CO2)cc1 (centres unmarked) | 7.68
